Measurements from the supplement of paper PMC11417369.
Some of the results follow.

System: PF3D7_0420300 AP2 domain 1 (GST-tagged)
Assay: gcPBM binding intensity (ln(normalized median fluorescence intensity)); higher = stronger DNA binding
In short: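 Using an Agilent 4 × 180k array, primer-extended double-stranded 36-bp intergenic genomic probes and negative controls were exposed for 1 h to GST-fused P. falciparum DNA-binding domains expressed in E. coli. Binding was carried out in 1× PBS with 1% milk, 0.2 mg/ml BSA, 0.5% salmon testes DNA and 0.03% Triton X-100, and protein was detected with Alexa488 anti-GST antibody and a 488 nm scan. Binding intensity is the highest Masliner-normalised natural-log median intensity across replicate spots of either probe orientation.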

| Sequence | gcPBM binding intensity (ln) |
| --- | --- |
| ATAACTTATTTTTAAAGTACATTATTATATATATAT [XGTACX_site1620] | 9.19 |
| TTAAGAATATTTTCATGTACTCATTTTTTTTGTTAT [XGTACX_site1814] | 9.4 |
| AATAAAAATATATCCACACACATATATAAATATGTA [CACACA_site6415] | 9.68 |
| ATTACATATGTGAGTTGTACTATAAATATATAATAT [XGTACX_site3718] | 9.25 |
| ACATCATAGAAAAATTGATATATATATATATATATA [CACACA_negctrl_site130] | 8.95 |
| TCCACAAAGCATGTAACACACAACATATAAGACATA [CACACA_site972] | 9.62 |
| AACCACATACCTATAACACACATATACAATATAGAT [CACACA_site7023] | 9.82 |
| TATATATTTTATTTATGTACGAAAATAAATTAAATT [XGTACX_site3628] | 8.93 |
| TTAAAAAAATTAATATGTACATATATTTATATATAT [XGTACX_site5317] | 8.91 |
| TATTAAAAAGAGGTGACACACACATATAAATCTAAA [CACACA_site9243] | 9.68 |
| AATATTTTAATGCACACACACAAAAAAAAAAAAAAA [CACACA_site7374] | 9.49 |
| AATCCTTTACGACACACACACAAAAAAAAAAAAAAA [CACACA_site6449] | 9.63 |
| TTATTAAAACAAAATGTACACACATATAATTTAATG [CACACA_site8193] | 9.48 |
| TTTTTCTTTCTTTCTTTTTTAATATTACAAATGTAT [XGTACX_negctrl_site267] | 9.2 |
| TTCAATGCATGTCCATGTACATATAAAAAAAAATAC [XGTACX_site1597] | 9.08 |
| TGTTGGCAGGTGAATGCATGCATATAAGTCTATCTG [TGCATGCA_site781] | 9.07 |
| CACCCTTTACACAAGGTGCATACTTTATTATATTTT [GTGCAC_site9778] | 9.46 |
| AAAGTAGAATATCCCCTACACACCCAAATAATTTAC [CACACA_site1255] | 9.85 |
| TTTTGTTTCTATATAAGATGGAAATATAAACTTGTA [CACACA_negctrl_site82] | 8.85 |

| Sequence | gcPBM binding intensity (ln) |
| --- | --- |
| TTAAGATCCTAAAAAACACACAATTGTGAATAATAA [CACACA_site3872] | 9.31 |
| GTAAGTTGTGCATTCACACACATATATATATATATA [CACACA_site3303] | 9.58 |
| TATATATATATATATACATGCATATATATAATATAT [TGCATGCA_site763] | 9.03 |
| AAATATATATAAATGAGTACTTATGGTAACATATAT [XGTACX_site6362] | 9.4 |
| AGAGCATAATAAAACACACACATACATACCTATATA [CACACA_site6566] | 9.95 |
| ATAAATAATTATAATTGTACACATATATATATATAC [XGTACX_site3998] | 9.26 |
| TTCCACATTTTACAGACACACACAATTTATATTACG [CACACA_site8572] | 9.63 |
| AAAAAATATTGAAGTACACACATTATGAACTTTTTT [CACACA_site1733] | 9.34 |
| TGTTTTTATAATATTAGTACATAATATACATAATTC [XGTACX_site2787] | 9.13 |
| AATAAATTAATTTTGGGTACATATATATATATATAT [XGTACX_site3807] | 9.21 |
| GAAGAATAAATATGCACACATGCATATATTTTTACA [CACACA_site3459] | 9.21 |
| AGAAAAAAAAAAAAAAAAAAAAAATTGAATATATAT [TGCATGCA_negctrl_site55] | 9.05 |
| TTTATTATCTTATTCACACACATATATATATATATA [CACACA_site2869] | 9.62 |
| ATATATTTTTACCATACACACATATAACAAATATAT [CACACA_site7706] | 9.68 |
| TACAATTCGTAATACACACACATATATATATATATT [CACACA_site3751] | 9.67 |
| TAAAAAAATTTAACATGTACAAATATTGAAAAGGAC [XGTACX_site7608] | 9.82 |
| ATTAAAAAAGAATATACACACCAAAACTGTTTGTTA [CACACA_site4687] | 9.21 |
| TTTTTAAATATAAACAAAAAAAAAAAATATATCAAT [XGTACX_negctrl_site328] | 9.29 |
| ATCATATTTATGTTGGTGCATTATGCATGGATTTTA [GTGCAC_site9795] | 9.2 |

| Sequence | gcPBM binding intensity (ln) |
| --- | --- |
| ATTTTTATTTTTATTTGTACTTATATATTCTTAAGC [XGTACX_site4122] | 9.31 |
| AATACCCAAGGACACACACACACATATATATATATA [CACACA_site8345] | 10.2 |
| ATAATATAAATACAAACACACAATTGTGTCCACATT [CACACA_site6920] | 9.72 |
| GGAAAATGAAAAACAAAAAAAAAAAAAAAAAAATGA [TGCATGCA_negctrl_site432] | 9.37 |
| ATATTCCTACATACAACACACGACGTTCTCATAAGA [CACACA_site231] | 9.39 |
| AAAAATAGACAAAAGAGTACAAGAAAAAAAGGGTTC [XGTACX_site7843] | 9.86 |
| ACATCTGTTATTTGTGGTACTAAAAAAATATATAGT [XGTACX_site8322] | 9.17 |
| TCTTTTTAGATATATACACACCGTGTCTACCTATAC [CACACA_site7551] | 9.41 |
| TTTTAAAGTTGTGAGCTTCATTTTTATTTATATGTA [CACACA_negctrl_site1505] | 9.23 |
| TTACAATTAATAAAGTGTACTTAACTATTATATATA [XGTACX_site481] | 9.01 |
| TTGATCTATAATAATACACACTTACATAATTAATTA [CACACA_site6273] | 9.17 |
| ATATATATATATGTCTGTACATAAAAAATAATAAAT [XGTACX_site3122] | 9.26 |
| TCCTCATTTTATCATACACACTTGTTTATATGGGTG [CACACA_site4650] | 9.37 |
| ACCCATAAAAATTATGCACACTTAATAAAGCGAAAT [CACACA_site5722] | 9.42 |
| ATAATTTATTTTAAAAGTACTCAATTTGCTTTTCTC [XGTACX_site5749] | 9.04 |
| TTTACAAAAAATTATACACACACGTACAGATAAATA [CACACA_site4678] | 9.89 |
| TATATTTATTATAATTGTACATAAAATAAACTAAGA [XGTACX_site4318] | 9.19 |
| AAATAATTAAACATATGTACATATTATATATATATA [XGTACX_site6774] | 9.23 |
